The RNAGym collection of RNA variant scans (doi:10.7554/elife.90254)
Read counts are not given, so values of variants with three or more changes are uncertain.

B1: LINE1-mini (parent)
chain: GGCAGAGCUCAACACAGCGUGGCAAAGUGGCUGUGGCUAGACUGCC

Variants of: B1
Test: self-cleavage, relative activity (ratio to wild type); higher = more cleavage; in vitro, sequencing; the parent is a self-cleaving ribozyme

Variant | self-cleavage
GGCAGAGCUCAACACAGCGUGGCAACCUGGCUGCGGCUAGACUGCC [A26C G27C U34C] | 0.01
GGCAGAGCUCAACACAGCGUGGCAGUGUGGCUGUUGCUAGACUGCC [A25G A26U G35U] | 0.09
GGCAGAGCUCAACACAGCGUGGCAUAAUGUCUGUGGCUAGACUGCC [A25U G27A G30U] | 1.39
GGCAGAGCUCAACACAGCGUGGCACAGUGGGGGUGGCUAGACUGCC [A25C C31G U32G] | 0.06
GGCAGAGCUCAACACAGCGUGGCACUGUGUCUGUGGCUAGACUGCC [A25C A26U G30U] | 0.08
GGCAGAGCUCAACACAGCGUGGCUAAGUGGCUGUGACUAGACAGCC [A24U G36A U43A] | 0.28
GGCAGAGCUCAACACAGCGUGGCAGAGUGGGUGUGGCUAGACAGCC [A25G C31G U43A] | 0
GGCAGAGCUCAACACAGCGUGGCAACGUGGAUAUGCCUAGUCUGCC [A26C C31A G33A G36C A41U] | 0.02
GGCAGAGCUCAACACAGCGUGGCAUCGUGGCUGUGGCUGGACUGCC [A25U A26C A39G] | 0.06
GGCAGAGCUCAACACAGCGUGGCAUAGUGUCUGUGGCUAGAAUGAC [A25U G30U C42A C45A] | 0.03
GGCAGAGCUCAACACAGCGUGGCAUACUGGCUGUGGCUAGACUGUC [A25U G27C C45U] | 0.16
GGCAGAGCUCAACACAGCGUGGCAUAGUGGCUGUUGCUAGAAUGCC [A25U G35U C42A] | 0.11
GGCAGAGCUCAACACAGCGUGGCAACUUGGCUGUGCCUAGACUGCC [A26C G27U G36C] | 0.07
GGCAGAGCUCAACACAGCGUGGCUAAGAGGCAGUGUCUAGACUGCC [A24U U28A U32A G36U] | 0.06
GGCAGAGCUCAACACAGCGUGGCAUAGUGGCUGUGUCUAGCCUGCC [A25U G36U A41C] | 0.02
GGCAGAGCUCAACACAGCGUGGCACAGUGGCUGUUGUUAGACUGCC [A25C G35U C37U] | 0.04
GGCAGAGCUCAACACAGCGUGGCAGAGUUUCUGUGGCUAGACUGCC [A25G G29U G30U] | 1.55
GGCAGAGCUCAACACAGCGUGGCAGAGUGGCUGUGGUUAGACUGCU [A25G C37U C46U] | 0.06
GGCAGAGCUCAACACAGCGUGGCUAAGUGACUGUGGCUACACUGCC [A24U G30A G40C] | 0.14

Variant | self-cleavage
GGCAGAGCUCAACACAGCGUGGCUAAGUUGCUGUGCCUAGACUGCC [A24U G29U G36C] | 0.37
GGCAGAGCUCAACACAGCGUGGCAUAGUGACCGUGGCUAGACUCCC [A25U G30A U32C G44C] | 0.03
GGCAGAGCUCAACACAGCGUGGCAGAGUGGCUGUUGCUGGACUGCC [A25G G35U A39G] | 0
GGCAGAGCUCAACACAGCGUGGCACAGUGGCUGUGGCUAGACGGUC [A25C U43G C45U] | 1.08
GGCAGAGCUCAACACAGCGUGGCAUAGUGGCUGUGGCUAGACUUUC [A25U G44U C45U] | 0.07
GGCAGAGCUCAACACAGCGUGGCAACCAGGCUGUGGCUAGACUGCC [A26C G27C U28A] | 0.18
GGCAGAGCUCAACACAGCGUGGCAGAGUAGUUUUGGCUAGACUGCC [A25G G29A C31U G33U] | 0.11
GGCAGAGCUCAACACAGCGUGGCAACCUGGCUGUGGAUAGCCUGCC [A26C G27C C37A A41C] | 0.01
GGCAGAGCUCAACACAGCGUGGCACAGUGGCUGUGGCUACACUGCU [A25C G40C C46U] | 0.11
GGCAGAGCUCAACACAGCGUGGCUAAGUGGCUGUGGCGAUACUGCC [A24U U38G G40U] | 0.07
GGCAGAGCUCAACACAGCGUGGCUAAGUGACUGUGGUUAGAAUGCC [A24U G30A C37U C42A] | 0.14
GGCAGAGCUCAACACAGCGUGGCAGAGUGGGUGUGUCUAGACUGCC [A25G C31G G36U] | 0.02
GGCAGAGCUCAACACAGCGUGGCAGAGUGGCUGCGGCUCGACUGCC [A25G U34C A39C] | 0.08
GGCAGAGCUCAACACAGCGUGGCACAGAGGCUGGGUCUAGACUUCC [A25C U28A U34G G36U G44U] | 0.04
GGCAGAGCUCAACACAGCGUGGCAGAGUAGCUGUGGUUAGACUGCC [A25G G29A C37U] | 0.02
GGCAGAGCUCAACACAGCGUGGCAUAUUCGCUGUGGCUAGACUGCC [A25U G27U G29C] | 0.21
GGCAGAGCUCAACACAGCGUGGCUAAGACCCUGUGGCUAGCCUGCC [A24U U28A G29C G30C A41C] | 0.03
GGCAGAGCUCAACACAGCGUGGCACAGUGGCUGUGUCUAGAAUGAC [A25C G36U C42A C45A] | 0.04
GGCAGAGCUCAACACAGCGUGGCAUAGUGACUGUGGCGAGACUGCC [A25U G30A U38G] | 0.03

Variant | self-cleavage
GGCAGAGCUCAACACAGCGUGGCUAAGUGGCUGUCGCUAGAAUUCC [A24U G35C C42A G44U] | 0.02
GGCAGAGCUCAACACAGCGUGGCUAAGUGGCUGCGGCCAGACUGCC [A24U U34C U38C] | 0.07
GGCAGAGCUCAACACAGCGUGGCACACUGGCUGUGGCUAGACUGCA [A25C G27C C46A] | 0.46
GGCAGAGCUCAACACAGCGUGGCAUGGUGGCUGUGGCUUGACUGCC [A25U A26G A39U] | 0.09
GGCAGAGCUCAACACAGCGUGGCAACGUGGAUGUGGCUAAACUGCC [A26C C31A G40A] | 0.06
GGCAGAGCUCAACACAGCGUGGCACAAUGGUUGUGGCUAGACUGCC [A25C G27A C31U] | 0.36
GGCAGAGCUCAACACAGCGUGGCAACGUGGCUGUGGCUUGACUGCA [A26C A39U C46A] | 0.23
GGCAGAGCUCAACACAGCGUGGCACAGUGGCUGUGGCUAGAAUUCC [A25C C42A G44U] | 0.26
GGCAGAGCUCAACACAGCGUGGCACAGUAGCUGUGGCUAGAUUGCC [A25C G29A C42U] | 0.39
GGCAGAGCUCAACACAGCGUGGCACCGUGGCUGUGGCUAGACUCCC [A25C A26C G44C] | 0.42
GGCAGAGCUCAACACAGCGUGGCAUAGGGGCUGUGGCUAGACUUCC [A25U U28G G44U] | 0.54
GGCAGAGCUCAACACAGCGUGGCACAGUUACUGUGGCUAGACUGCC [A25C G29U G30A] | 0.13
GGCAGAGCUCAACACAGCGUGGCAGUGUGGCUGUGGCUUGACUGCC [A25G A26U A39U] | 0.24
GGCAGAGCUCAACACAGCGUGGCUAAGUGACUGUGGCUAGACUGAC [A24U G30A C45A] | 0.5
GGCAGAGCUCAACACAGCGUGGCAUUGAGGCUGUGGCUAAACUGCC [A25U A26U U28A G40A] | 0.01
GGCAGAGCUCAACACAGCGUGGCAGAGUGGCUGUGGCUAGACUCCU [A25G G44C C46U] | 0.1
GGCAGAGCUCAACACAGCGUGGCAGAGUGGCGGAGGCUAGAUUGCC [A25G U32G U34A C42U] | 0.03
GGCAGAGCUCAACACAGCGUGGCACAGUGGAUGUCGCUAGACUGCA [A25C C31A G35C C46A] | 0.04
